To fix the notation:
B1: Q9UKT9 (peptide)
chain: FVCNVCGAIFTQKGNLLRHIKL
B2: Q9UKT9 (peptide)
chain: LFCNQCGFKCTQKGNLLRHIKL
B3: Q9UKT9 (peptide)
chain: FWCNQCGHFFTQKGNLLRHIKL
B4: Q9UKT9 (peptide)
chain: FNCEVCGAIFTQKGNLLRHIKL
B5: Q9UKT9 (peptide)
chain: FGCPVCGAWFTQKGNLLRHIKL
B6: Q9UKT9 (peptide)
chain: LYCNQCGFNCTQKGNLLRHIKL
B7: Q9UKT9 (peptide)
chain: FCCNQCGREFTQKGNLLRHIKL
B8: Q9UKT9 (peptide)
chain: LYCNQCGFYCTQKGNLLRHIKL
B9: Q9UKT9 (peptide)
chain: LVCEICGFDCTQKGNLLRHIKL
B10: Q9UKT9 (peptide)
chain: FYCNVCGANFTQKGNLLRHIKL
B11: Q9UKT9 (peptide)
chain: FWCPICGAKFTQKGNLLRHIKL
B12: Q9UKT9 (peptide)
chain: LGCPICGFSCTQKGNLLRHIKL
B13: Q9UKT9 (peptide)
chain: FICNVCGADFTQKGNLLRHIKL
B14: Q9UKT9 (peptide)
chain: LVCEICGFMCTQKGNLLRHIKL
B15: Q9UKT9 (peptide)
chain: FICPICGHTFTQKGNLLRHIKL
B16: Q9UKT9 (peptide)
chain: FRCDVCGAFFTQKGNLLRHIKL
B17: Q9UKT9 (peptide)
chain: FWCPVCGACFTQKGNLLRHIKL
B18: Q9UKT9 (peptide)
chain: FLCNVCGALFTQKGNLLRHIKL
B19: Q9UKT9 (peptide)
chain: FGCDVCGATFTQKGNLLRHIKL
B20: Q9UKT9 (peptide)
chain: LYCNQCGFWCTQKGNLLRHIKL
B21: Q9UKT9 (peptide)
chain: FHCPICGRIFTQKGNLLRHIKL
B22: Q9UKT9 (peptide)
chain: LVCPICGFICTQKGNLLRHIKL
B23: Q9UKT9 (peptide)
chain: LMCEICGFACTQKGNLLRHIKL
B24: Q9UKT9 (peptide)
chain: FFCEQCGAAFTQKGNLLRHIKL
B25: Q9UKT9 (peptide)
chain: FHCPQCGAGFTQKGNLLRHIKL
B26: Q9UKT9 (peptide)
chain: FWCEICGHWFTQKGNLLRHIKL
B27: Q9UKT9 (peptide)
chain: FKCDQCGALFTQKGNLLRHIKL
B28: Q9UKT9 (peptide)
chain: FYCNVCGAEFTQKGNLLRHIKL
B29: Q9UKT9 (peptide)
chain: LACNQCGFHCTQKGNLLRHIKL
B30: Q9UKT9 (peptide)
chain: FWCPQCGAHFTQKGNLLRHIKL
B31: Q9UKT9 (peptide)
chain: FGCEVCGACFTQKGNLLRHIKL
B32: Q9UKT9 (peptide)
chain: LCCPICGFRCTQKGNLLRHIKL

The other results are listed elsewhere or left out.
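Also: jurkat cells carrying a lentiviral library of mutant zinc finger degrons fused to EGFP plus mCherry, mCherry+ cells FACS sorted, degron abundance counted by next-generation sequencing.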

The assay deals with no compound (DMSO). In words: log2 fold change of degron read counts, EGFP-low vs EGFP+ sorted cells; higher = lower degron-EGFP level without compound (poor expression or instability). Particulars: compound: DMSO control; 18 h.
As for B1, the “log2 fold change of degron read counts” value turned out to be 0.0733.
The same measure for B2: 0.679; for B3: 1.73.
For B4, the “log2 fold change of degron read counts” value is -0.934.
Turning to B5, the “log2 fold change of degron read counts” value came out at 0.693.
Consider B6, for which the “log2 fold change of degron read counts” value turned out to be 1.28.
In the case of B7 it was -1.12; in that of B8, 1.93.
B9: the “log2 fold change of degron read counts” value was -0.387.
With B10, the “log2 fold change of degron read counts” value was -0.3.
The same measure for B11: 0.362; for B12: 0.889; for B13: -1.07.
With B14, the “log2 fold change of degron read counts” value was determined as 0.0964.
On to B15, for which the “log2 fold change of degron read counts” value was -1.12.
In the case of B16 it was -0.829; in that of B17, 1.21.
As to B18, the “log2 fold change of degron read counts” value was -0.148.
As to B19, the “log2 fold change of degron read counts” value is -0.722.
As to B20, the “log2 fold change of degron read counts” value stood at 1.63.
As for B21, the “log2 fold change of degron read counts” value is -0.377.
On to B22, for which the “log2 fold change of degron read counts” value came out at 1.71.
Regarding B23, the “log2 fold change of degron read counts” value came out at 0.0238.
With B24, the “log2 fold change of degron read counts” value was -1.
In the case of B25 it was -0.957; in that of B26, 1.15; in that of B27, -2.05.
On to B28, for which the “log2 fold change of degron read counts” value is -1.1.
Regarding B29, the “log2 fold change of degron read counts” value was 0.122.
With B30, the “log2 fold change of degron read counts” value stood at 0.403.
In the case of B31 it was -2.17.
In the case of B32 it was 0.861.

The values above are taken from the supplement of paper PMC12645437, “Orthogonal IMiD-Degron Pairs Induce Selective Protein Degradation in Cells” (ACS Chemical Biology, 2025).
